# The antibiotic and cytotoxicity screens of Wong et al. (2023)
# This is one part of the list.
# Test system: HSkMC (human skeletal muscle cells)
# Test: cytotoxicity call (relative viability < 0.9)
# Settings: 10 µM
row,SMILES,cytotoxicity call
1,C[C@H](CO)N1C[C@H](C)[C@@H](CN(C)CC2CCCCC2)Oc2ccc(NC(=O)CCN3CCOCC3)cc2C1=O,inactive
2,COc1ccc(S(=O)(=O)Nc2ccc3c(c2)C(=O)N([C@@H](C)CO)C[C@H](C)[C@H](CN(C)C(=O)Nc2c(C)noc2C)O3)cc1,inactive
3,Cl.OC(c1cc(C(F)(F)F)nc2c(C(F)(F)F)cccc12)C1CCCCN1 (stereo unspecified),active
4,COC(=O)/C=C/c1cn([C@H]2OC[C@@H](CO)[C@@H]2O)c(=O)[nH]c1=O,inactive
5,C[C@@H]1CN([C@@H](C)CO)S(=O)(=O)c2ccc(C#Cc3ccncc3)cc2O[C@@H]1CN(C)C(=O)Nc1ccc2c(c1)OCO2,inactive
6,CC(C)C#Cc1ccc2c(c1)O[C@@H](CN(C)C(=O)Cc1ccccn1)[C@H](C)CN([C@@H](C)CO)S2(=O)=O,inactive
7,CC(=O)N1CCN(CC(N)=S)CC1,inactive
8,C[C@@H]1CCCCO[C@H](CN(C)C(=O)c2ccccc2)[C@H](C)CN([C@@H](C)CO)C(=O)c2cc(NS(=O)(=O)c3ccc(Cl)cc3)ccc2O1,inactive
9,C[C@@H]1CCCCO[C@@H](CN(C)Cc2ccc(C(=O)O)cc2)[C@H](C)CN([C@@H](C)CO)C(=O)c2cc(NC(=O)Nc3ccc(F)cc3)ccc2O1,inactive
10,Cc1noc(C)c1S(=O)(=O)Nc1ccc2c(c1)C(=O)N([C@@H](C)CO)C[C@@H](C)[C@@H](CN(C)Cc1ccc(C(=O)O)cc1)O2,inactive
11,COc1ccccc1-c1ccc2c(c1)O[C@H](CN(C)CC1CCOCC1)[C@H](C)CN([C@H](C)CO)S2(=O)=O,inactive
12,COCCNC(=O)C[C@H]1CC[C@@H]2[C@H](COc3ccc(NS(=O)(=O)c4ccc(Cl)cc4)cc3C(=O)N2C)O1,inactive
13,C[C@@H]1CN([C@H](C)CO)C(=O)Cc2cc(NC(=O)c3ccncc3)ccc2O[C@@H]1CN(C)S(=O)(=O)c1cccs1,inactive
14,C[C@@H]1CN([C@@H](C)CO)C(=O)c2c(c3ccccc3n2C)-c2ccccc2CO[C@@H]1CN(C)C(=O)Nc1ccc2c(c1)OCO2,inactive
15,C[C@@H](N)c1nc2c(s1)CCCC2,inactive
16,O=c1n(C[C@H]2CO2)c(=O)n(C[C@H]2CO2)c(=O)n1C[C@H]1CO1,inactive

row,SMILES,cytotoxicity call
1,COc1ccccc1OC[C@@H](O)COC(N)=O,inactive
2,O=C(C[C@@H]1CC[C@@H](NC(=O)c2cccnc2)[C@@H](CO)O1)NCCN1CCCCC1,inactive
3,C[C@@H]1CCCCO[C@H](CN(C)Cc2ccc3c(c2)OCO3)[C@H](C)CN([C@@H](C)CO)C(=O)c2cc(NS(=O)(=O)c3ccc(Cl)cc3)ccc2O1,inactive
4,C[C@H]1CN([C@@H](C)CO)C(=O)c2cc(NC(=O)NC3CCCCC3)ccc2O[C@@H]1CN(C)Cc1ccc(-c2ccccc2)cc1,inactive
5,C[C@H]1CN([C@@H](C)CO)S(=O)(=O)c2ccc(C#CCC3CCCC3)cc2O[C@H]1CN(C)C(=O)CN(C)C,inactive
6,C[C@H]1CCCCO[C@@H](CN(C)C(=O)c2ccccc2)[C@@H](C)CN([C@@H](C)CO)C(=O)c2cc(NC(=O)c3ccccc3)ccc2O1,inactive
7,C[C@H](CO)N1C[C@H](C)[C@@H](CN(C)S(=O)(=O)c2ccc(Cl)cc2)OCCCC[C@H](C)Oc2ccc(NC(=O)Nc3cccc4ccccc34)cc2C1=O,inactive
8,O=C(C[C@@H]1C=C[C@H](NC(=O)c2cnccn2)[C@H](CO)O1)NCc1ccccc1F,inactive
9,C[C@@H]1CCCCO[C@H](CN(C)C(=O)c2ccncc2)[C@@H](C)CN([C@H](C)CO)C(=O)c2cc(NC(=O)NC3CCCCC3)ccc2O1,inactive
10,Cc1ccc(S(=O)(=O)Nc2cccc3c2O[C@@H](CN(C)Cc2ccc(Cl)c(Cl)c2)[C@@H](C)CN([C@H](C)CO)C3=O)cc1,inactive
11,C[C@H](O)[C@H](O)[C@@H](O)[C@@H](O)/C=N/NC(=O)c1ccccn1,inactive
12,COc1ccc(S(=O)(=O)N(C)C[C@@H]2OCCCC[C@@H](C)Oc3ccc(NC(=O)Nc4cccc5ccccc45)cc3C(=O)N([C@H](C)CO)C[C@@H]2C)cc1,inactive
13,Cn1cnc(S(=O)(=O)N[C@@H]2C=C[C@@H](CC(=O)Nc3ccccc3)O[C@H]2CO)c1,inactive
14,C[C@@H]1CN([C@H](C)CO)C(=O)c2cc(-c3cccc(C(=O)N(C)C)c3)cnc2O[C@@H]1CN(C)S(=O)(=O)c1ccc(F)cc1,inactive
15,COc1ccc(S(=O)(=O)Nc2ccc3c(c2)C(=O)N([C@H](C)CO)C[C@@H](C)[C@@H](CN(C)Cc2ccc4c(c2)OCO4)OCCCC[C@H](C)O3)cc1,inactive
